Publication PMC11911400, “Mechanism of ASF1 engagement by CDAN1” (Nature Communications, 2025)
Residue numbers refer to the chain shown, from its start. No constants are given. Whether binding was seen depends on the method and setting. In cells and extracts the contact can be indirect. Some entries that bind do so weakly or less than the wild type.

Experiments:
[1] = target: T1, Strep-CDAN1 HMHA1* BDA1* HMHA2* (three elements mutated) (human) (UniProt Q8IWY9); experiment: pull-down; Strep-Tactin pulldown of transiently transfected ST-CDAN1 variants from Flp-In 293 T-REx lysates; endogenous ASF1A, ASF1B and CDIN1 detected by immunoblotting; IP buffer with 1% Triton X-100, 1 hr at 4 °C
T1 sequence: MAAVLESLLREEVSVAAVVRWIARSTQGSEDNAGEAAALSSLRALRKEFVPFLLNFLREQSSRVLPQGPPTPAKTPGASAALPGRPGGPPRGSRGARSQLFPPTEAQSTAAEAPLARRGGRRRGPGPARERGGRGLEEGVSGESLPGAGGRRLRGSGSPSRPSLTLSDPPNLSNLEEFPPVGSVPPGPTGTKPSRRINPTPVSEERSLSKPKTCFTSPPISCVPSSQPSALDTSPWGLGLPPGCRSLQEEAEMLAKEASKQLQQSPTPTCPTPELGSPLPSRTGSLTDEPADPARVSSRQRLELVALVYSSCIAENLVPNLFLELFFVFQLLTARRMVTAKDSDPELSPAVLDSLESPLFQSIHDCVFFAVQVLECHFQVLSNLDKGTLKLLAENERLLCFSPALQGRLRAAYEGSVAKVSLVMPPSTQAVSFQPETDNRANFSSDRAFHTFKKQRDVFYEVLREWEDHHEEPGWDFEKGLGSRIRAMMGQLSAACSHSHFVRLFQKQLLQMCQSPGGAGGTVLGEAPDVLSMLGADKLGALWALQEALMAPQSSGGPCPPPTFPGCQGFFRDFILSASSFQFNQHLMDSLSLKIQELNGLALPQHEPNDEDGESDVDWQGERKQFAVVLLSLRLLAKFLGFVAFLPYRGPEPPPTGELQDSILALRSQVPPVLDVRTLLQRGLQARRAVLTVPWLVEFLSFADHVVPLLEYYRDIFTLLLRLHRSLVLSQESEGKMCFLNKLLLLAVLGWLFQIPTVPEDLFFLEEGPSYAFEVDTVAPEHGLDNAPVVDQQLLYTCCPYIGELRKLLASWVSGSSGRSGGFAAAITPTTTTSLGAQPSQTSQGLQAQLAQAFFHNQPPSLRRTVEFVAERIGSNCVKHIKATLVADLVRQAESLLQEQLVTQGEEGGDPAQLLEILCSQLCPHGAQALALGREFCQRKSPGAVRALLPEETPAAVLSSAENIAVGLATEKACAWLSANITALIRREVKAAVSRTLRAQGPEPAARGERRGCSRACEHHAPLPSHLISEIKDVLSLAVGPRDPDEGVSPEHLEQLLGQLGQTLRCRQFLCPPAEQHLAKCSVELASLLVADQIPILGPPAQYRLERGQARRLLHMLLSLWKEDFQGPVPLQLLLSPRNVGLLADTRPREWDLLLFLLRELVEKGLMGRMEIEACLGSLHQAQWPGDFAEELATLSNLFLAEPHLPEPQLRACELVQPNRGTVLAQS

[2] = target: T2, Strep-CDAN1 HMHA1* BDA1* BDA2* (three elements mutated) (human) (UniProt Q8IWY9); experiment: as above
T2 sequence: T1 sequence with S194A, R195A, R196A, A251R, A255R, A258R

binding [1]: binds | binding [2]: binds
B1: FLAG-tagged CDIN1 (F-CDIN1) (natural protein, UniProt Q9Y2V0 1-281, looked up)
chain: MILTKAQYDEIAQCLVSVPPTRQSLRKLKQRFPSQSQATLLSIFSQEYQKHIKRTHAKHHTSEAIESYYQRYLNGVVKNGAAPVLLDLANEVDYAPSLMARLILERFLQEHEETPPSKSIINSMLRDPSQIPDGVLANQVYQCIVNDCCYGPLVDCIKHAIGHEHEVLLRDLLLEKNLSFLDEDQLRAKGYDKTPDFILQVPVAVEGHIIHWIESKASFGDECSHHAYLHDQFWSYWNRFGPGLVIYWYGFIQELDCNRERGILLKACFPTNIVTLCHSIA
notes: C15orf41); cDNA synthesized by IDT; source: Expi293, transiently transfected, in lysate and purified in complexes (anti-FLAG, Strep-Tactin); not shown: 3xFLAG, N-terminal, kept
